From PubChem BioAssay (NCI)
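Method: 48-hour compound exposure of cells in 96-well plates, five concentrations, linear interpolation of endpoints. GI50 marks 50% less growth. TGI: total growth inhibition.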

Tested on: NCI-H322M lung
Test: DTP human tumour cell line panel, 48 h

SMILES | GI50 [µM] | TGI [µM]
CN1CCN(c2ccc(Nc3nc(N4CCN(S(=O)(=O)c5ccc(F)cc5)CC4)c4sccc4n3)cc2)CC1 | 3.31 | 12.3
CSc1ccccc1NC(=O)c1ccc2nnn(/C(C#N)=C/c3ccccn3)c2c1 | 13.9 | 26.8
CONC[C@]1(C)C=C2C(=O)[C@](C)(O)C3(CC3)C(C)=C2[C@H]1O | 2.18 | 7.34
O=C(CNc1nc(-c2ccccc2)cs1)Nc1ccc([N+](=O)[O-])cc1 | 4.16 | 17.3
O=C(CS(=O)(=O)c1oc(-c2ccc(Cl)cc2)nc1S(=O)(=O)c1ccc(Cl)cc1)N1CCOCC1 | 66 | > 100
